Data taken from PubChem BioAssay AID504466 (National Center for Advancing Translational Sciences (NCATS), 2011).
Among all 330,000 compounds or so, about 4,200 (1.3%) were called active. The inconclusive results got no clear call from the source; some entries with a clear call stand among them for comparison. Calls follow the shape of the dose curve; as a rule, active = well fitted activation curve with a large enough effect; inconclusive = small, poorly fitted or top-dose-only effect; inactive = no such curve, though single readings can be large or run the other way. Potencies beside an inconclusive call are fits to weak or partial responses and may not hold up.

Assay: qHTS screen for small molecules that induce genotoxicity in human embryonic kidney (HEK293T) cells expressing luciferase-tagged ELG1; also: nearly all actives have a fitted effect of over 60% in size
Conditions: HEK293T ELG1-luciferase reporter, luminescence, 16 h; series mostly up to 46 µM
Text: NIH Molecular Libraries Probe Production Network [MLPCN] NIH Chemical Genomics Center [NCGC] MLPCN Grant: 1 R03 MH092164-01 Assay Provider: Kyungjae Myung, NHGRI, NIH Keywords: MLPCN, qHTS, NCGC, genotoxicity, cancer Assay Overview: Cancer cells divide rapidly compared to normal cells in the body. During cell division, cancer cells need to duplicate their genome by DNA replication. The failure of genome duplication leads to cancer cells' death. Therefore, inhibitors of DNA replication could specifically kill cancer cells. Based on this concept, many chemotherapeutic agents were developed and have been used to treat cancer patients. However, there are a limited number of agents available in the clinical setting, and some of those that do exist have low efficacy and severe side effects. Therefore, if we can find the compounds that effectively block DNA replication either by directly damaging DNA or by inhibiting other cellular mechanisms, the options for cancer treatment will be broadened. With this in mind, we developed a quantitative high-throughput ELG1-luciferase reporter gene assay. Since the level of human ELG1 protein is enhanced in response to genetic stresses, increases in luciferase activity can be used to identify compounds that cause genetic stress.
Assay Protocol Summary: For genotoxicity screening, 2,000 cells in 5 uL/well were dispensed into white, solid-bottom 1536-well plates using a solenoid-based dispenser. Following transfer of 23 nL compound or DMSO vehicle by a pin tool, the plates were incubated 16 hr at 37 °C and 5% CO2. 5 ul ONE-Glo (Promega) was then added to each plate and following a 30 min incubation at room temperature, luciferase activity was quantified on a ViewLux CCD-based plate reader.
Potency is read from the fitted curve at half-maximal effect; tags tell the direction and shape of the fitted curve.

Compound	Potency
COc1ccc(C(=O)Nc2cc(OC)cc(OC)c2)cc1	inconclusive: 3.66 µM [activator, full curve]
CCc1ccc(C(=O)Nc2cc(C)on2)o1	inconclusive: 7.3 µM [activator, partial curve]
COc1ccc(CN=C2NN=C(c3cccc(OC)c3)CS2)cc1	inactive
Cc1ccccc1Cn1ccc(NC(=O)c2nc3ncccn3n2)n1	inconclusive: 23.1 µM [activator, partial curve, poor fit]
COc1ccc(C(=O)CSc2nccn2C)c(OC)c1	inconclusive: 5.8 µM [activator, partial curve]
CCOC(=O)Cc1csc(NC(=O)COc2ccc(C)c(C)c2)n1	inconclusive: 29.1 µM [activator, partial curve, poor fit]
O=C(/C=C/c1nc2ccccc2s1)N1CCCCCC1	inconclusive: 9.2 µM [activator, partial curve]
COCCn1c(SCC(=O)Nc2cc(C)nn2-c2ccccc2)nnc1-c1ccncc1	inactive
CCOc1ccc2cc(C#N)c(SCC(=O)OC)nc2c1	inconclusive: 2.24 µM [activator, partial curve, poor fit]
O=C(NCc1ccccc1)Nc1cccn(Cc2ccc(Cl)cc2)c1=O	inactive
O=C(c1ccc(-c2ccc(Cl)cc2Cl)o1)N1CCOCC1	inconclusive: 10.3 µM [activator, partial curve]
Nc1ccc2oc(CCc3ccccc3)nc2c1	inconclusive: 4.61 µM [activator, partial curve]
O=C(OC(C(=O)Nc1ccc(Cl)cc1C(F)(F)F)c1ccccc1)c1c(Cl)cccc1Cl (stereo unspecified)	inactive
Cn1cc(Cl)c(C(=O)Nc2nc3ccc(Cl)cc3s2)n1	inconclusive: 6.51 µM [activator, partial curve, poor fit]
O=C(NCc1ccccc1Cl)c1ccc2ccccc2n1	inconclusive: 20.6 µM [activator, partial curve]
COc1ccccc1OCC(=O)N/N=C1\CCc2ccccc21	active: 8.2 µM
COCCN1CCN(C(=O)c2cc(COc3ccc(Cl)cc3OC)on2)CC1	active: 20.6 µM
O=c1ccc(N=Nc2ccccc2)ccc1O	inconclusive: 29.1 µM [activator, single point]
COc1cc(OC)cc(-c2nc3ccccc3s2)c1	inconclusive: 20.6 µM [activator, partial curve, poor fit]
CC(C)CC(NC(=O)c1ccco1)C(=O)Nc1ccc2c(c1)OCCO2 (stereo unspecified)	inconclusive: 13 µM [activator, partial curve]
Cc1cc(C)n2nc(SCC(=O)Nc3ccc(F)cc3[N+](=O)[O-])nc2n1	inactive
CSCC[C@H](NC(=O)N1CCn2c1nc1ccccc12)C(=O)NCC1CCCO1 (stereo partly specified)	inactive
c1ccc2[nH]c(NCc3ccc4c(c3)OCO4)nc2c1	inconclusive: 6.51 µM [activator, partial curve]
Cc1ccc(OC(=O)c2cccnc2)cc1	inactive

Compound	Potency
CCOc1ccc(CCNC(=O)c2cc3ccccn3n2)cc1OCC	inactive
COc1cc2cnc(-c3ccccc3F)cc2cc1OC	inconclusive: 16.4 µM [activator, partial curve, poor fit]
Cc1ccc2nc(-c3ccc(O)c(O)c3)cn2c1	inconclusive: 3.26 µM [activator, single point]
CC(=O)c1ccc(NS(=O)(=O)c2ccc(N)cc2)cc1	inconclusive: 20.6 µM [activator, partial curve, poor fit]
CC(C)(C)c1ccc(OCCC(=O)NNC(=O)c2ccccc2)cc1	inactive
COc1cc(NC(=O)COc2cccc3c2OC(C)(C)C3)cc(OC)c1OC	inactive
Cc1ccc(/C=N/N=C/c2ccc(C)s2)s1	active: 3.66 µM
COc1cccc(-c2nc(CSCC(=O)N3CCc4ccccc43)c(C)o2)c1	inconclusive: 32.6 µM [activator, single point]
O=C(c1ccccc1)c1coc2ccc(O)c(Cl)c12	inconclusive: 4.61 µM [activator, partial curve, poor fit]
CC(=O)Oc1ccc(-c2ccc(C(=O)OCC(=O)N(C)CC(=O)Nc3ccccc3Cl)cc2)cc1	inconclusive: 23.1 µM [activator, partial curve]
Cc1nc(N2CCN(S(=O)(=O)c3ccccc3)CC2)c2cc(-c3ccccc3)sc2n1	inconclusive: 6.51 µM [activator, partial curve, poor fit]
COc1cccc(/C=N/NC(=O)c2ccc(=O)n(C)c2)c1O	inconclusive: 18.4 µM [activator, single point]
CSc1ccc(S(=O)(=O)N2CCC(C(=O)NCc3ccccn3)CC2)cc1	inactive
O=C(Nc1ccc(F)cc1)c1cc2c(s1)CCCC2	inconclusive: 2.31 µM [activator, full curve]
Cc1cc(=O)[nH]c(N/N=C/c2cc(C)n(-c3ccccc3)c2C)n1	active: 9.2 µM
CCn1cc(C(=O)O)c(=O)c2cc(F)c(N3CCN(C(=S)NC(=O)c4ccccc4F)CC3)cc21	inactive
O=C(CCCc1cccs1)Nc1nc2c(s1)CCCC2	inconclusive: 16.4 µM [activator, partial curve, poor fit]
CCOc1ccc(Nc2ncnc3c2cnn3-c2ccccc2)cc1	active: 18.4 µM
CC(=O)c1ccc(NC(=O)c2ccc(NC(=O)CCS(=O)(=O)c3cccs3)cc2)cc1	inconclusive: 20.6 µM [activator, single point]
C#CC(C)(C)NC(=O)c1ccc(-c2ccccc2F)cc1	inconclusive: 23.1 µM [activator, partial curve, poor fit]
CN(C)c1ccc(N=Nc2ccccc2C(=O)OCC(=O)NC2CCCC2)cc1	inactive
COc1ccccc1NC(=O)Cc1ccc(-c2ccccc2)cc1	inconclusive: 6.51 µM [activator, partial curve, poor fit]
COc1ccc(-c2cc3c(=O)n(CC(=O)N4CCN(C)CC4)ncn3n2)cc1	inconclusive: 13 µM [activator, partial curve, poor fit]
O=C(Cn1cc([N+](=O)[O-])ccc1=O)NCc1ccc(Cl)cc1Cl	inconclusive: 13 µM [activator, partial curve]

Compound	Potency
Cc1nc(C)c(-c2csc(Nc3cccnc3)n2)s1	inconclusive: 13 µM [activator, partial curve]
CCOC(=O)C1Sc2ccccc2NC1=O (stereo unspecified)	inactive
Nc1nonc1-c1noc(N2CCCCC2)n1	inconclusive: 13 µM [activator, partial curve, poor fit]
CCc1ccc(NC(=O)CNC(=O)Cn2ccc3ccccc3c2=O)cc1	inconclusive: 29.1 µM [activator, partial curve, poor fit]
Oc1ccc(/C=N/Nc2nccnc2Cl)cc1	active: 11.6 µM
CCCc1nc2ccccc2c(C(=O)OCC(=O)NCc2ccco2)c1CC	inactive
COc1ccc(S(=O)(=O)N2CCOCC2)cc1NC(=O)c1cccc(Cl)c1	inactive
O=C(NCc1ccco1)c1cnn2c(C(F)F)cc(-c3ccccc3)nc12	inconclusive: 23.1 µM [activator, partial curve]
COC(=O)c1ccc2[nH]c(C(C)(C)O)c(C)c2c1	inconclusive: 20.6 µM [activator, single point]
O=C(/C=C/c1ccccc1)c1ccc(NC2=NCCCS2)cc1	inconclusive: 23.1 µM [activator, single point]
COc1ccc(S(=O)(=O)Nc2ccccc2C(F)(F)F)cc1	inactive
CCOC(=O)c1ccc(CC2S/C(=C(\C#N)C(C)=O)NC2=O)cc1 (stereo unspecified)	inconclusive: 20.6 µM [activator, partial curve, poor fit]
CC(C)(C)c1ccc(C2C(C(=O)c3ccco3)=C(O)C(=O)N2CC2CCCO2)cc1 (stereo unspecified)	inconclusive: 4.61 µM [activator, partial curve, poor fit]
Cc1ccc(Cl)cc1N1CCN(C(=O)C2CCN(c3nnc(-n4cccc4)s3)CC2)CC1	inconclusive: 2.31 µM [activator, partial curve]
CCOC(=O)c1sc(-c2ccc(OC)cc2)cc1N	inconclusive: 2.91 µM [activator, full curve]
COc1ccccc1C(=O)Oc1ccc(C(C)C)cc1	inconclusive: 29.1 µM [activator, partial curve, poor fit]
CCOC(=O)c1cccc(NC(=O)c2cc3sccc3n2C)c1	inconclusive: 2.31 µM [activator, partial curve]
Nc1nonc1-n1nnc(C(=O)N/N=C/c2ccc(OCc3ccccc3)cc2)c1CNc1ccccc1	inconclusive: 32.6 µM [activator, partial curve, poor fit]
Cc1ccc(-c2noc(C3CCCCC3)n2)cc1	inconclusive: 14.6 µM [activator, partial curve]
O=C(Nc1ccon1)c1cc2c(s1)CCCC2	active: 1.3 µM
Cc1ccc2nc(NC(=O)C3CSC4(C)CCC(=O)N34)sc2c1 (stereo unspecified)	inconclusive: 14.6 µM [activator, partial curve]
CC(C)n1nc(C(=O)Nc2nc3ccc(S(C)(=O)=O)cc3s2)c2ccccc2c1=O	inconclusive: 18.4 µM [activator, single point]
Cc1cccnc1NC(=O)c1ccc(OCc2c(C)noc2C)cc1	inconclusive: 23.1 µM [activator, single point]
